From patent publication US20110008345A1 (GlaxoSmithKline, published 2011)

Key:
[1] = target: T1, recombinant E. coli-expressed human IL-4 (human, UniProt P05112 25-153); test: SPR stoichiometry, IL-4 injected 1st
T1 construct: made and purified at GSK; also called Interleukin-4; rhIL-4
T1 sequence: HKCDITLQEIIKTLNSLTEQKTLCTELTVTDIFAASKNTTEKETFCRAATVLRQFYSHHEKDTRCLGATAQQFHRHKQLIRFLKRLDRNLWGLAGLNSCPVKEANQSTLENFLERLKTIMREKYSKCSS

[2] = target: T1, recombinant E. coli-expressed human IL-4; test: SPR stoichiometry, IL-4 injected 2nd
[3] = target: T2, recombinant E. coli-expressed human IL-13 (human, UniProt P35225 part only); test: SPR stoichiometry, IL-13 injected 1st
T2 construct: made and purified at GSK; also called Interleukin-13; rhIL-13

[4] = target: T3, recombinant E. coli-expressed human IL-18 (human, UniProt Q14116 37-193); test: SPR stoichiometry, IL-18 injected 2nd
[5] = target: T2, recombinant E. coli-expressed human …; test: SPR stoichiometry, IL-13 injected 3rd
[6] = target: T1, recombinant E. coli-expressed human IL-4; test: SPR stoichiometry, IL-4 injected 3rd
[7] = target: T3, recombinant E. coli-expressed human …; test: SPR stoichiometry, IL-18 injected 1st
[8] = target: T3, recombinant E. coli-expressed human …; test: SPR stoichiometry, IL-18 injected 3rd
[9] = target: T2, recombinant E. coli-expressed human …; test: SPR
[10] = target: T3, recombinant E. coli-expressed human …; test: SPR
[11] = target: T2, recombinant E. coli-expressed human …; test: SPR stoichiometry, IL-13 injected 2nd

- Stoichiometry [1]: 0.9
- Stoichiometry [2]: 0.9
- Stoichiometry [3]: 1.6
- Stoichiometry [4]: 1.8
- Stoichiometry [5]: 1.8
- Stoichiometry [6]: 0.8
- Stoichiometry [7]: 1.8
- Stoichiometry [8]: 1.7
- Kd [9]: 0.99 nM and 1 nM
- Kd [10]: 0.011 nM and 0.014 nM
- Stoichiometry [11]: 1.7
B1: IL18mAb-210-474 (other)
heavy: QVQLVQSGAEVKKPGASVKVSCKVSGEISTGYYFHWVRQAPGKGLEWMGRIDPEDDSTKYAERFKDRVTMTEDTSTDTAYMELSSLRSEDTAVYYCTTWRIYRDSSGRPFYVMDAWGQGTLVTVSS[human IgG1 constant region omitted]GGGGSEVQLLESGGGLVQPGGSLRLSCAASGFTFRNFGMGWVRQAPGKGLEWVSWIISSGTETYYADSVKGRFTISRDNSKNTLYLQMNSLRAEDTAVYYCAKSLGRFDYWGQGTLVTVSS
light: DIQMTQSPSSVSASVGDRVTITCLASEDIYTYLTWYQQKPGKAPKLLIYGANKLQDGVPSRFSGSGSGTDYTLTISSLQPEDFATYYCLQGSKFPLTFGQGTKLEIKRTVAAPSVFIFPPSDEQLKSGTASVVCLLNNFYPREAKVQWKVDNALQSGNSQESVTEQDSKDSTYSLSSTLTLSKADYEKHKVYACEVTHQGLSSPVTKSFNRGECGGGGSGVQLLESGGGLVQPGGSLRLSCAASGFTFAWYDMGWVRQAPGKGLEWVSSIDWHGEVTYYADSVKGRFTISRDNSKNTLYLQMNSLRAEDTAVYYCATAEDEPGYDYWGQGTLVTVSS
notes: trispecific mAbdAb; also called trispecific anti-IL18 mAb-anti-IL4dAb-anti-IL13dAb

“And” between values parts separate entries of the source, which are not always exact repeats. Equal entries are not always repeated.
